# Data as given in PMC4336329 (PLoS ONE, 2015).
# Among all 310,000 compounds or so, about 14,000 (4.5%) showed an effect of 50% or more. Effects have a minus sign here. The list shows a part of the results. Where a SMILES comes first, the peptide text is derived from it. [ ]: non-standard residue; d: D form. ξ: configuration not given here. ξM = CSCCC(N)C(=O)O
# Biological target: human ether-à-go-go-related gene (hERG) potassium channel (human, UniProt Q12809)
# Assay: primary screen, population patch clamp on CHO cells stably expressing hERG
# 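Also: peak tail current of the secondary pulse compared with the same well before compound.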
# human ether-à-go-go-related gene (hERG) potassium channel, sequence (Q12809 whole entry, looked up): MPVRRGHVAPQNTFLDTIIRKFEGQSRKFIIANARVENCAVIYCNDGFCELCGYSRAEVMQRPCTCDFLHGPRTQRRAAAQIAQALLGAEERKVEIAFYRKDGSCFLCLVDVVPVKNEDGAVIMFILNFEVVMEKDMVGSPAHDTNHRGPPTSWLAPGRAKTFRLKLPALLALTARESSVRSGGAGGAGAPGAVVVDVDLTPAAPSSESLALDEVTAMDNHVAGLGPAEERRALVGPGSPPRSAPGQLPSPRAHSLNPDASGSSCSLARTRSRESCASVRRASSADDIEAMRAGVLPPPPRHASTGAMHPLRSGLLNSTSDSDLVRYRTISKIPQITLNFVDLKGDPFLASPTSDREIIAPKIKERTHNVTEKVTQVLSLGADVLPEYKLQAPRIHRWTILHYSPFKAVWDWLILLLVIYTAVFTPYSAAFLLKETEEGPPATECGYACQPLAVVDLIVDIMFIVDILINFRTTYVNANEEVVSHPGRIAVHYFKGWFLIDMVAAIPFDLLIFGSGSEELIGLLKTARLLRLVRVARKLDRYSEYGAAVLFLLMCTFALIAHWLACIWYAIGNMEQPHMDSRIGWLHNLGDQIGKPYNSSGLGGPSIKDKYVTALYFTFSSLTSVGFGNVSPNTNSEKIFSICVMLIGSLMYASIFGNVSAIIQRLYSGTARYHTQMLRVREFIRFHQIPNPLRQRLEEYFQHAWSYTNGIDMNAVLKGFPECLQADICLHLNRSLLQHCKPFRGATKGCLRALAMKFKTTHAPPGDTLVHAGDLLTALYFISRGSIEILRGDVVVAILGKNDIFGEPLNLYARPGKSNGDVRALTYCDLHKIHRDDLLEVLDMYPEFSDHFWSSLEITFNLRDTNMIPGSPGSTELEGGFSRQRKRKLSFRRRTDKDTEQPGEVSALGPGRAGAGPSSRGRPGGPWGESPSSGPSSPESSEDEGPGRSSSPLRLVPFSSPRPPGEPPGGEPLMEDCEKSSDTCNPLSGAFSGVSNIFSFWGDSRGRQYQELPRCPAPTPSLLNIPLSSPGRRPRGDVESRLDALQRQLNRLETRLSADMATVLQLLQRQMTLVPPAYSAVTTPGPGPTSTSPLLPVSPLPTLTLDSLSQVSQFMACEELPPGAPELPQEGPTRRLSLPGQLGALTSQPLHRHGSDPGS
row,Structure (SMILES),"hERG current change (%, negative = inhibition) at 10uM [%]"
1,Cc1c(C(=O)N2CCOCC2)c(S(=O)(=O)Nc2cccc(C#N)c2)c(C)n1C,23
2,O=[N+]([O-])c1ccccc1S(=O)(=O)NC1CCCCCCC1,-0.427
3,COc1ccc2[nH]c(C(=O)N3CCCN(Cc4ccc(F)cc4)CC3)cc2c1,-43.4
4,COc1ccc(OC)c(CNCc2ccc3c(c2)OCO3)c1.O=C(O)C(=O)O,-4.43
5,Cc1cccc(N2CCN(C(=O)CCS(=O)(=O)c3ccc(Br)cc3)CC2C)c1 (stereo not shown),-23
6,Cn1cc(C(=O)N2CCC3(CC2)OCCO3)c2c3ccccc3n(C)c2c1=O,13.3
7,Cl.OC(COc1ccc(F)cc1)CN1CCN(c2ccccc2F)CC1 (stereo not shown),-66.6
8,CSc1nnc(OC(=O)N(C)C)n1-c1ccc(Cl)cc1,7.1
9,CC(=O)NCc1ccc(S(=O)(=O)NC2CCN(Cc3ccccc3)CC2)cc1,18
10,Cc1nccn1CCCNC(=O)c1nc(Cn2cc([N+](=O)[O-])cn2)no1,21.9
11,O=C(O)CC(CC(=O)NCC(O)c1ccccc1)c1ccccc1 (stereo not shown),6.24
12,NNc1nc2sc3c(c2c(=O)[nH]1)CCc1ccccc1-3,7.46
13,O=C(NC1CCCCCCC1)c1ccc(F)c(S(=O)(=O)N2CCOCC2)c1,9.88
14,CC1CCc2nn(CC(=O)NCCC3=CCCCC3)cc2C1 (stereo not shown),6.93
15,NCCCS(=O)(=O)O.O.[Na+],4.88
16,O=C(NC1CCC(CC2CCC(NC(=O)C(Cl)Cl)CC2)CC1)C(Cl)Cl (stereo not shown),11.9
17,CC(=O)Nc1ccc(NC(=O)CSc2nc(C)nc3sc(C)c(C)c23)cc1,21.2
18,Cc1cc(-c2nc(-c3ccncc3)no2)ccc1[N+](=O)[O-],-5.2
19,COC(=O)c1[nH]c2ccccc2c1NC(=O)CCN1CCSCC1,4.47
20,Cc1cccc(NC(=S)/N=C(\N)Nc2nc(C)c3cc(C)ccc3n2)c1,18.9
21,CN(C)CCCN(C(=O)c1ccc2c(c1)CCCC2)c1nc2ccc(F)cc2s1.Cl,-66.9
22,CCOC(=O)c1c(CC(C)C)csc1NC(C)=O,-2.62
23,CCCCCCCCCCCCCCCCn1cc[n+](C)c1.[Br-],-18.4

row,Structure (SMILES),"hERG current change (%, negative = inhibition) at 10uM [%]"
1,CC(=O)c1ccc(Oc2ccc(C(C)=O)cc2)cc1,0.755
2,O=C(CN1CCC(NC(=O)c2ccc(Br)cc2)CC1)NCc1cccs1,-49.1
3,O=S(=O)(c1ccc2c(c1)OCCO2)N1CCC(n2nnc3cc(C(F)(F)F)ccc32)CC1,-16.4
4,Cc1c(CCC(=O)NCCCC(=O)O)c(=O)oc2cc3oc4c(c3cc12)CCCC4,16.9
5,CC(C)(C)OC(=O)NCCCC[C@H](NC(=O)c1[nH]cnc1C(=O)Nc1ccccc1)C(=O)OC(C)(C)C,15.6
6,COc1ccc(CN2CCN(C(C)C)C(CCO)C2)cc1Cn1cccn1 (stereo not shown),8.43
7,COC(=O)c1ccc(CN2CCCC(C(=O)Nc3ccc(-c4ccn[nH]4)cc3)C2)cc1 (stereo not shown),3.46
8,CCN1C(=NCCOC)N[C@@H](c2cccc(F)c2)C(C(=O)OC)=C1C,-14.3
9,Cc1ccccc1NC(=O)Nc1cc(-c2ccccc2)nn1C,2.31
10,Nc1nonc1N1CCCCC1,9.12
11,O=C(O)c1cccc(Nc2ncnc3ccc(Br)cc23)c1,-1.55
12,CCn1cc(C(=O)OCC(=O)Nc2ccc(C(C)C)cc2)c(=O)c2ccc(C)nc21,12.4
13,CN(C)CCN(C(=O)c1ccc(N2C(=O)CCC2=O)cc1)c1nc2cc3c(cc2s1)OCO3.Cl,0.227
14,Cc1ccc(-c2nnnn2-c2ccc(C)cc2)cc1,-9.64
15,CCOC(=O)CSc1nc(C)c2ccc(C)cc2n1,3.42
16,Cc1nc2cc(NC(=O)NC3CC3)ccc2n1C,18.9
17,CCOc1cc(/C=N/Nc2nc(-c3cccs3)c(NC(C)=O)s2)ccc1O,-9.55
18,N#Cc1cc2c(nc1SCc1cccnc1)CCCC2,-7.04
19,COc1ccccc1OCC(=O)N1CCN(Cc2ccc3c(c2)OCO3)CC1,-29.3
20,Fc1cccc(F)c1/C=N/N1CCOCC1,3.33
21,COC(=O)CNC(=O)C(CCSC)NC(C)=O (stereo not shown) (Ac-[ξM]-Gly-OMe),26.5
22,Cc1ccccc1N1CC2=C(C1=O)C(c1ccccc1)NC(=O)N2C (stereo not shown),-3.43
23,Cc1cc(N2CCN(C)CC2)n2nc(-c3ccc(Cl)cc3)nc2n1,-77.3

row,Structure (SMILES),"hERG current change (%, negative = inhibition) at 10uM [%]"
1,Cc1ccc(CN2CCN(/N=C/c3sccc3C)CC2)c(C)c1,-14.1
2,O=C(CNS(=O)(=O)c1ccccc1)Nc1ccccc1Br,2.86
3,O=C(Cn1cc([N+](=O)[O-])ccc1=O)Nc1ccc2c(c1)OCO2,-4.94
4,COC(=O)CNC(c1ccccc1)c1cc(Br)ccc1N (stereo not shown),-12.4
5,COc1ccc(OC)c(NC(=O)CSc2nnc(CNC(=O)c3ccccc3F)o2)c1,-3.87
6,CC(C)(C)C(=O)Nc1sc2c(c1C(=O)Nc1ccccn1)CCCC2,-9.5
7,COC(=O)c1ccc(NC(=O)C2CCCO2)cc1 (stereo not shown),2.85
8,O=c1ccn(Cc2ccccc2)c2ccccc12,-0.762
9,CCn1c(CNc2ccc(F)cc2)nnc1SCCN1CCCCC1,-12.1
10,O=C1CC(N2CCC(O)(c3ccc(Br)cc3)CC2)C(=O)N1c1ccc(Cl)cc1 (stereo not shown),-30.5
11,Cc1ccc(CN2CCN(/N=C/C(Br)=C\c3ccccc3)CC2)cc1,-3.15
12,C/C(N)=C(/C#N)C(=O)COC(=O)c1cc(-c2ccccc2)nc2ccc(Br)cc12,10.6
13,COc1ccc(CCn2c(C3CCCCC3)nc3c(c(=O)c4ccccc4n3C)c2=O)cc1OC,-8.08
14,CC/C(=N\NC(N)=O)c1ccc(OC(F)F)cc1,-12.5
15,CCOC(=O)CC(=O)NC(C)(C)CCCCC(C)(C)NC(=O)CC(=O)OCC,20.5
16,Cc1ccc(OCc2cc(C(=O)NCc3ccc(OC(F)(F)F)cc3)no2)cn1,-5.13
17,COc1ccc(/C=C/C(=O)O)cc1COc1cccc(C)c1,4.41
18,Cc1cc2nncn2c2ccccc12,12.9
19,Cc1nn(CC(=O)NCc2cc3ccccc3[nH]2)c(C)c1[N+](=O)[O-],11.8
20,CSc1ccccc1OCc1cc(C(=O)N2CCc3[nH]cnc3C2c2ccccn2)no1 (stereo not shown),-4
21,Cc1cccc(NC(=O)N2CCC(C(=O)c3ccc(F)cc3)CC2)c1,-40.6
22,COc1ccc(C2NC(=O)NC(C)=C2C(=O)OCC2CCCCC2)cc1OC (stereo not shown),-2.11
23,C/C(=N/Oc1nc(C)cc(C)n1)c1ccc(Cl)cc1Cl,-11

row,Structure (SMILES),"hERG current change (%, negative = inhibition) at 10uM [%]"
1,C/C(=N\Nc1ccccn1)c1ccc(N2CCOCC2)cc1,-1.69
2,C/C(=N\NC(=O)c1c(Cl)cnn1C)c1cccc(NC(=O)c2ccc(C)cc2)c1,1.67
3,NC(=O)c1ccsc1NC(=O)CCc1ccccc1,8.34
4,COCCNC(=S)Nc1ccc(S(=O)(=O)Nc2ncccn2)cc1,10.1
5,CCN1C(=S)N[C@@H](c2ccccc2)C(C(=O)OC)=C1C,14.8
6,O=C(CCN1C(=O)COc2ccccc21)NCCN1CCc2ccccc2C1,-35.1
7,CC(C(=O)NCc1ccccc1)n1cc([N+](=O)[O-])cn1 (stereo not shown),-8.6
8,COc1ccc(CCn2c(C)c(C(C)=O)c(C(C)=O)c2C)cc1OC,6.86
9,COc1cc(C(=O)NCCC(=O)NCCCN2CCCCC2)cc(OC)c1OC,-5.84
10,COc1ccc(NC(=O)Nc2cnccn2)c(OC)c1,-26.3
11,CCn1cc(/C=C(\NC(=O)c2ccccc2F)C(=O)NCCN2CCOCC2)c2ccccc21,-2.31
12,Cc1nn(CC(=O)Nc2ccc(N3CCOCC3)cc2)c(C)c1Br,4.46
13,CCCS(=O)(=O)N1CCCC(C(=O)NCCN(CC)c2ccccc2)C1 (stereo not shown),-11.3
14,CC(CC(=O)Nc1ccc(Br)cc1F)S(=O)(=O)c1ccc2c(c1)NC(=O)CO2 (stereo not shown),-30.2
15,O=C(O)C(S)C(S)C(=O)O (stereo not shown),14.5
16,Cc1ccc2nc(Cl)c(C3CC(c4cccs4)=NN3C(=O)CCCC(=O)O)cc2c1 (stereo not shown),14.2
17,COCCN=c1scc(C)n1/N=C/C1CC2C=CC1C2 (stereo not shown),-55
18,NC1=NC(=O)C(CC(=O)Nc2ccc3c(c2)OCO3)S1 (stereo not shown),1.22
19,O=C(CCCn1cnc([N+](=O)[O-])n1)Nc1ccc(F)c(Cl)c1,-9.52
20,CC(=O)N1CCN(c2nc3ccc(Br)cc3s2)CC1,-49.4
21,CCOC(=O)CNc1nc(C(C)(C)C)nc2c1nnn2Cc1ccccc1Cl,9.44
22,Cc1cnc(NC(=O)CC2CCCC2)s1,21.5
